The labels stand for the following.
B1: CD80_200-Fc (Fc fusion)
chain: VIHVTKEVNRVATLSCGVNVSVEELAQYRIYWQKEKKMVLTMMSGDMNIWPEYKNRTIFDITNNLSIVILGLRPSDEGTYECVVLKYEKDAFKREHLAEVTLSVKADGSGGGGS[omitted - human IgG4 Fc with S228P (EU numbers)]
notes: also called K9N, E10R, H18V, T28Y, A71G
B2: CD80_207-Fc (Fc fusion)
chain: B1 chain with N9K, R10E, V18H, Y28T, E35D, V68T, G71A, T101K
notes: also called E35D, V68T, T101K
B3: CD80_216-Fc (Fc fusion)
chain: B1 chain with N9K, R10E, V11W, V18H, D46V, G71A, R73E, F92L
notes: also called V11W, T28Y, D46V, R73E, F92L
B4: CD80_203-Fc (Fc fusion)
chain: B1 chain with R10A, V11W, V18F, Y28H, M47L, T62E, G71A, R73D
notes: also called K9N, E10A, V11W, H18F, T28H, M47L, T62E, R73D
B5: CD80_219-Fc (Fc fusion)
chain: B1 chain with N9K, R10S, V11Y, V18H, Y28T, M42R, G71V
notes: also called E10S, V11Y, M42R, A71V
B6: CD80_211-Fc (Fc fusion)
chain: B1 chain with N9K, R10E, V11Y, V18H, Y28R, E35G, M47L
notes: also called V11Y, T28R, E35G, M47L, A71G
B7: CD80_220-Fc (Fc fusion)
chain: B1 chain with N9K, R10E, V18F, Y28V, M47L, V68S, G71A
notes: also called H18F, T28V, M47L, V68S
B8: CD80_210-Fc (Fc fusion)
chain: B1 chain with E7N, N9K, R10E, V18H, Y28T, E35D, F59S, G71A
notes: also called E7N, E35D, F59S
B9: CD80_215-Fc (Fc fusion)
chain: B1 chain with N9R, R10A, V18H, Y28T, E35G, V68L, G71A, L85E
notes: also called K9R, E10A, E35G, V68L, L85E
B10: CD80_205-Fc (Fc fusion)
chain: B1 chain with N9K, R10G, V18H, Y28T, D46K, G71A, L85E
notes: also called E10G, D46K, L85E
B11: CD80_221-Fc (Fc fusion)
chain: B1 chain with N9K, R10G, V18H, A26S, G71A
notes: also called E10G, A26S, T28Y
B12: CD80_208-Fc (Fc fusion)
chain: B1 chain with N9K, R10E, V11Y, V18H, Y28T, E35G, M42G, F59S, G71A
notes: also called V11Y, E35G, M42G, F59S
B13: CD80_217-Fc (Fc fusion)
chain: B1 chain with R10G, V18H, Y28T, G71A, Y87K, T101Q
notes: also called K9N, E10G, Y87K, T101Q
B14: CD80_201-Fc (Fc fusion)
chain: B1 chain with N9K, R10G, V18Y, M47W, T62S, G71A
notes: also called E10G, H18Y, T28Y, M47W, T62S
B15: CD80_214-Fc (Fc fusion)
chain: B1 chain with N9K, R10G, V18H, Y28T, E35G, D46E, M47V, V68M, G71A, T101K
notes: also called E10G, E35G, D46E, M47V, V68M, T101K
B16: CD80_212-Fc (Fc fusion)
chain: B1 chain with N9R, R10A, V18H, Y28T, E35G, V68T, G71A, T101K
notes: also called K9R, E10A, E35G, V68T, T101K
B17: CD80_209-Fc (Fc fusion)
chain: B1 chain with N9K, R10E, V11Y, V18H, Y28R, E35G, M47L, F59S, G71A
notes: also called V11Y, T28R, E35G, M47L, F59S
B18: CD80_206-Fc (Fc fusion)
chain: B1 chain with N9K, R10G, V18T, Q27T, Y28T, D46E, M47L, G71A
notes: also called E10G, H18T, Q27T, D46E, M47L
B19: CD80_218-Fc (Fc fusion)
chain: B1 chain with N9K, R10E, V11W, V18H, D46V, V68T, G71A, R73T, Y87N
notes: also called V11W, T28Y, D46V, V68T, R73T, Y87N

19 molecules from US20250243260A1 (ALPINE IMMUNE SCIENCES, published 2025) can be followed below.

Changes are numbered by the printed parent chain. Names and notes keep the numbering of the source.

In the assay the target is T1, human PD-L1 (human, UniProt Q9NZQ7).
T1 construct: whole, on cells; also called SCC152/PD-L1 cells
T1 sequence (Q9NZQ7 19-290): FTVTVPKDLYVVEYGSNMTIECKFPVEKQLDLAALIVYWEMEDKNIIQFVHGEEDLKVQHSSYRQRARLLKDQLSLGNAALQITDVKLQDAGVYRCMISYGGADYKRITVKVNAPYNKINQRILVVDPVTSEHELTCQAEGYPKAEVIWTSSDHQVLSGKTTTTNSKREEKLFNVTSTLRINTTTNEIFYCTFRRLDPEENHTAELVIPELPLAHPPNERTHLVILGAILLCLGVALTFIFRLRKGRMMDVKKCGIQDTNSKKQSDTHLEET
The experiment in a line: flow cytometry, SCC152/PD-L1 cells. The protocol: Binding affinity to CD28 was determined using primary human T cells which endogenously express CD28. Binding to PD-L1 was determined using SCC152 cells transduced with human PD-L1. Binding to CTLA-4 was measured using Chinese hamster ovary (CHO) cells stably transduced to express human CTLA-4.
For staining and analysis by flow cytometry, 75,000 human T cells, SCC152/PD-L1 cells, or CHO/CTLA-4 cells were plated in 96-well round-bottom plates. Cells were spun down and resuspended in staining buffer (PBS (phosphate buffered saline), 1% BSA (bovine serum albumin), 1 mM EDTA, and 0.1% sodium azide) for 20 minutes to block non-specific binding. Afterwards, cells were centrifuged, stain buffer aspirated, and then resuspended in 50 μL of a 1:5 serial dilution of each CD80-Fc candidate variant starting at 100 nM ending at 0.8 nM. Primary staining was performed on ice for 60 minutes, before washing cells in […] staining buffer three times. PE-conjugated anti-human Fc (Jackson ImmunoResearch, USA) was diluted 1:250 in 50 μL staining buffer and added to cells and incubated another 30 minutes at 4° C. Cells were washed two times in 150 μL stain buffer and then fixed in 2% formaldehyde/PBS for 5 minutes at room temperature. Samples were analyzed CytoFLEX LX flow cytometer (Beckman Coulter, USA). Median Fluorescence Intensity (MFI) was calculated for each cell type using the CytExpert software from Beckman Coulter.
Background: In flow cytometry, cells or beads pass a laser one at a time.
For B1, the “Anti-Human Fc (MFI) at 0.8 nM” value was found to be 1280 MFI, the “Anti-Human Fc (MFI) at 4 nM” value is 1820 MFI, the “Anti-Human Fc (MFI) at 20 nM” value came to 2180 MFI and the “Anti-Human Fc (MFI) at 100 nM” value came to 2300 MFI. Moreover, the “fold change vs WT CD80 @20 nM” value was 3.2 fold.
In the case of B2, the “Anti-Human Fc (MFI) at 0.8 nM” value is 657 MFI, the “Anti-Human Fc (MFI) at 4 nM” value was found to be 623 MFI, the “Anti-Human Fc (MFI) at 20 nM” value came out at 652 MFI and the “Anti-Human Fc (MFI) at 100 nM” value is 793 MFI. The “fold change vs WT CD80 @20 nM” value is 1 fold.
Turning to B3, the “Anti-Human Fc (MFI) at 0.8 nM” value stood at 636 MFI, the “Anti-Human Fc (MFI) at 4 nM” value is 668 MFI, the “Anti-Human Fc (MFI) at 20 nM” value turned out to be 786 MFI and the “Anti-Human Fc (MFI) at 100 nM” value was determined as 975 MFI. Besides, the “fold change vs WT CD80 @20 nM” value came to 1.2 fold.
Taken in the same sequence, the figures for B4 were 1050 MFI, 1910 MFI, 4170 MFI, 5030 MFI and 6.1 fold.
On to B5, for which the “Anti-Human Fc (MFI) at 0.8 nM” value was 615 MFI, the “Anti-Human Fc (MFI) at 4 nM” value was 639 MFI, the “Anti-Human Fc (MFI) at 20 nM” value amounted to 730 MFI and the “Anti-Human Fc (MFI) at 100 nM” value amounted to 830 MFI. Further, the “fold change vs WT CD80 @20 nM” value stood at 1.1 fold.
Turning to B6, the “Anti-Human Fc (MFI) at 0.8 nM” value stood at 922 MFI, the “Anti-Human Fc (MFI) at 4 nM” value was found to be 1550 MFI, the “Anti-Human Fc (MFI) at 20 nM” value was 3830 MFI and the “Anti-Human Fc (MFI) at 100 nM” value turned out to be 7020 MFI. Also, the “fold change vs WT CD80 @20 nM” value came out at 5.6 fold.
In the case of B7, the “Anti-Human Fc (MFI) at 0.8 nM” value was 635 MFI, the “Anti-Human Fc (MFI) at 4 nM” value came out at 621 MFI, the “Anti-Human Fc (MFI) at 20 nM” value was determined as 622 MFI and the “Anti-Human Fc (MFI) at 100 nM” value amounted to 698 MFI. Further, the “fold change vs WT CD80 @20 nM” value was 0.9 fold.
For B8, in that order: 688 MFI, 630 MFI, 630 MFI, 640 MFI and 0.9 fold.
Take B9: the “Anti-Human Fc (MFI) at 0.8 nM” value was 757 MFI, the “Anti-Human Fc (MFI) at 4 nM” value came out at 1000 MFI, the “Anti-Human Fc (MFI) at 20 nM” value turned out to be 1670 MFI and the “Anti-Human Fc (MFI) at 100 nM” value came out at 2420 MFI. For the same molecule, the “fold change vs WT CD80 @20 nM” value was 2.4 fold.
On to B10, for which the “Anti-Human Fc (MFI) at 0.8 nM” value was 685 MFI, the “Anti-Human Fc (MFI) at 4 nM” value amounted to 649 MFI, the “Anti-Human Fc (MFI) at 20 nM” value is 678 MFI and the “Anti-Human Fc (MFI) at 100 nM” value was found to be 817 MFI. Further, the “fold change vs WT CD80 @20 nM” value was 1 fold.
B11: the “Anti-Human Fc (MFI) at 0.8 nM” value is 686 MFI, the “Anti-Human Fc (MFI) at 4 nM” value was 767 MFI, the “Anti-Human Fc (MFI) at 20 nM” value amounted to 809 MFI and the “Anti-Human Fc (MFI) at 100 nM” value was 917 MFI. For the same molecule, the “fold change vs WT CD80 @20 nM” value was 1.2 fold.
Taken in the same sequence, the figures for B12 were 688 MFI, 652 MFI, 653 MFI, 714 MFI and 1 fold.
With B13, the “Anti-Human Fc (MFI) at 0.8 nM” value was 640 MFI, the “Anti-Human Fc (MFI) at 4 nM” value was 706 MFI, the “Anti-Human Fc (MFI) at 20 nM” value amounted to 759 MFI and the “Anti-Human Fc (MFI) at 100 nM” value stood at 834 MFI. In addition, the “fold change vs WT CD80 @20 nM” value turned out to be 1.1 fold.
With B14, the “Anti-Human Fc (MFI) at 0.8 nM” value was found to be 932 MFI, the “Anti-Human Fc (MFI) at 4 nM” value worked out at 1100 MFI, the “Anti-Human Fc (MFI) at 20 nM” value turned out to be 1340 MFI and the “Anti-Human Fc (MFI) at 100 nM” value turned out to be 1450 MFI. Further, the “fold change vs WT CD80 @20 nM” value came out at 2 fold.
Turning to B15, the “Anti-Human Fc (MFI) at 0.8 nM” value was 1070 MFI, the “Anti-Human Fc (MFI) at 4 nM” value amounted to 1500 MFI, the “Anti-Human Fc (MFI) at 20 nM” value was 1730 MFI and the “Anti-Human Fc (MFI) at 100 nM” value stood at 2030 MFI. Further, the “fold change vs WT CD80 @20 nM” value worked out at 2.5 fold.
In the case of B16, the “Anti-Human Fc (MFI) at 0.8 nM” value is 698 MFI, the “Anti-Human Fc (MFI) at 4 nM” value amounted to 734 MFI, the “Anti-Human Fc (MFI) at 20 nM” value worked out at 948 MFI and the “Anti-Human Fc (MFI) at 100 nM” value came out at 1510 MFI. Besides, the “fold change vs WT CD80 @20 nM” value was determined as 1.4 fold.
As to B17, the “Anti-Human Fc (MFI) at 0.8 nM” value amounted to 666 MFI, the “Anti-Human Fc (MFI) at 4 nM” value was determined as 644 MFI, the “Anti-Human Fc (MFI) at 20 nM” value was 634 MFI and the “Anti-Human Fc (MFI) at 100 nM” value stood at 746 MFI. The “fold change vs WT CD80 @20 nM” value came out at 0.9 fold.
Turning to B18, the “Anti-Human Fc (MFI) at 0.8 nM” value came out at 672 MFI, the “Anti-Human Fc (MFI) at 4 nM” value was found to be 806 MFI, the “Anti-Human Fc (MFI) at 20 nM” value was 860 MFI and the “Anti-Human Fc (MFI) at 100 nM” value was 936 MFI. The “fold change vs WT CD80 @20 nM” value amounted to 1.3 fold.
For B19, in that order: 596 MFI, 702 MFI, 740 MFI, 797 MFI and 1.1 fold.
